In publication PMC12969314 (European journal of medicinal chemistry, 2022):

Biological target: σ1 receptor (Homo sapiens, UniProt Q99720)
Type: binding
Conditions: for selectivity σ1:D4: ratio, σ1 over D4; for σ1 % inhibition: printed in Ki column, concentration not printed for σ1

Sequence of UniProt Q99720 (Q99720 whole entry): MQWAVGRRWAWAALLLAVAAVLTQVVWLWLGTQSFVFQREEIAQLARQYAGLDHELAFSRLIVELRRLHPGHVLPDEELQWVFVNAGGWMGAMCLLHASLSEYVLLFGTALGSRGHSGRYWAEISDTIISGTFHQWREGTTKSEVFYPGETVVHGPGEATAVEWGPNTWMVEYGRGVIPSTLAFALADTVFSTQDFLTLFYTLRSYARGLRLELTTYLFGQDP

SMILES: Cc1cccc(CO[C@H]2CCCN(Cc3ncc4ccccn34)C2)n1 [Compound 15e, (S)-3-((3-((6-methylpyridin-2-yl)methoxy)piperidin-1-yl)methyl)imidazo[1,5-a]pyridine]
σ1 % inhibition: 15%; NA

SMILES: Cc1cccc(CO[C@H]2CCCN(Cc3cn4ccccc4n3)C2)n1 [Compound 17h, (S)-2-((3-((6-methylpyridin-2-yl)methoxy)piperidin-1-yl)methyl)imidazo[1,2-a]pyridine]
σ1 % inhibition: 39%; NA

SMILES: Cc1csc(OC[C@@H]2CN(Cc3cn4ccccc4n3)CCO2)n1 [Compound 17j, (S)-4-(imidazo[1,2-a]pyridin-2-ylmethyl)-2-(((4-methylthiazol-2-yl)oxy)methyl)morpholine]
σ1 % inhibition: 6%; NA

Now from value to molecule:

selectivity σ1:D4: > 950
SMILES: Fc1ccc(COC2CCN(Cc3ccc4[nH]ncc4c3)CC2)cc1F [Compound 12a, 5-((4-((3,4-difluorobenzyl)oxy)piperidin-1-yl)methyl)-1H-indazole]

selectivity σ1:D4: 828
SMILES: Fc1cc(COC2CCN(Cc3ccc4[nH]ncc4c3)CC2)ccc1Cl [Compound 12b, 5-((4-((4-chloro-3-fluorobenzyl)oxy)piperidin-1-yl)methyl)-1H-indazole]

Ki: 170 nM
SMILES: c1cncc(COC2CCN(Cc3cn4ccccc4n3)CC2)c1 [Compound 17e, 2-((4-(pyridin-3-ylmethoxy)piperidin-1-yl)methyl)imidazo [1,2-a]pyridine]

σ1 pKi ([3H]Pentazocine, HEK293 membranes): 8.28 | Ki (read-out: σ1 Ki, [3H]Pentazocine, HEK293 membranes, triplicate): 5.2 nM
SMILES: COc1ccc(CO[C@H]2CCCN(Cc3cccc(C)c3)C2)cc1F [Compound 19h, (S)-3-((3-fluoro-4-methoxybenzyl)oxy)-1-(3-methylbenzyl)piperidine]

Read-outs that look alike come from different tables or passages of the source. Each block holds one molecule with its values, some of them ahead of it.
